# Measurements reported in PubChem BioAssay AID1460 (National Center for Advancing Translational Sciences (NCATS), 2008).
# Out of some 270,000 compounds screened, about 5,800 (2.1%) were called active. Inconclusive results, whose numbers are uncertain, are shown with a selection of clear calls. The call rests on the fitted dose curve; in most records, active means well fitted inhibition curve with a large enough effect; inconclusive means small, poorly fitted or top-dose-only effect; inactive means flat fitted curve, though single readings scatter. A potency beside an inconclusive call is a rough fit, not a confirmed value.
# Target: Microtubule-associated protein tau (Homo sapiens) (UniProt P10636)
# Chain of UniProt P10636 (P10636 whole entry, looked up): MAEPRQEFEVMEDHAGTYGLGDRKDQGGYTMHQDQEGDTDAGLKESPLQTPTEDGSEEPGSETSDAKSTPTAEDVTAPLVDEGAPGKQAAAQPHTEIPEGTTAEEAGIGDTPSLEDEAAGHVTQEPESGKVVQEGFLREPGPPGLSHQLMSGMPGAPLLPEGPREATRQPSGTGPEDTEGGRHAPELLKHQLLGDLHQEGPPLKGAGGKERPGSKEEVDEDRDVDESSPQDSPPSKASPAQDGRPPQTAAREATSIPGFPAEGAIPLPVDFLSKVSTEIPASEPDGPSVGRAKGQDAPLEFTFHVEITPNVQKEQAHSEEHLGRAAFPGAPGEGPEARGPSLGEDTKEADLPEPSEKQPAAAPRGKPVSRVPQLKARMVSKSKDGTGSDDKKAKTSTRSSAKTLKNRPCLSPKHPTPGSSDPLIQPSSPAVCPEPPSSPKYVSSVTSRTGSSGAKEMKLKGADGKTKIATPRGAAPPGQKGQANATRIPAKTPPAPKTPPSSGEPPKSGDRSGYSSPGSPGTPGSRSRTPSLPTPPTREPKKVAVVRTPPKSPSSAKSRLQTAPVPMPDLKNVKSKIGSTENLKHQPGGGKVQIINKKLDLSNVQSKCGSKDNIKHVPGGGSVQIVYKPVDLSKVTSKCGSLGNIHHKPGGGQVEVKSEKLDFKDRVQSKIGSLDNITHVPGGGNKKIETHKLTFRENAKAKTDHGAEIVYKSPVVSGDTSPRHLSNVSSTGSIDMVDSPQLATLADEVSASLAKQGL
# Test: qHTS for Inhibitors of Tau Fibril Formation, Thioflavin T Binding; further: nearly all actives have a fitted effect of over 55% in size
# Conditions: recombinant tau K18 P301L (four-repeat tau fragment), heparin-induced fibrillization, ThT fluorescence; series mostly up to 57.4 µM
# Method in brief: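 Heparin-induced fibrillization of the P301L-mutant K18 repeat-domain fragment of human tau was followed by ThT binding in quantitative high-throughput format.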
# Potency means the concentration at half of the fitted maximal effect; tags describe the fitted curve by direction and shape.
row,Compound,Potency
1,COc1cc(NC(=O)c2nccnc2C(=O)O)cc(OC)c1,"inconclusive: 17.8 µM [inhibitor, single point]"
2,C=CCNC(=S)N/N=C/c1ccc(N(CC)Cc2ccccc2)cc1,"inconclusive: 4.47 µM [inhibitor, full curve, poor fit]"
3,Cc1ccc(C2=NNC(C(O)C(O)C(O)CO)S2)cc1 (configuration not stated),"inconclusive: 17.8 µM [inhibitor, partial curve]"
4,CCOc1ccc2[nH]c3c(N4CCC5(CC4)OCCO5)ncnc3c2c1,"inconclusive: 11.2 µM [inhibitor, partial curve]"
5,Cc1ccc(Cl)cc1Nc1nc(-c2sc(NC(=O)C(C)(C)C)nc2C)cs1,"inconclusive: 14.1 µM [inhibitor, partial curve]"
6,COc1ccc(-c2csc(Nc3ccc(S(=O)(=O)Nc4cc(C)on4)cc3)n2)cc1,"inconclusive: 14.1 µM [inhibitor, partial curve]"
7,CCOC(=O)c1c(C)oc2nc(C)nc(NCc3ccc(OC)cc3)c12,"inconclusive: 35.5 µM [inhibitor, single point]"
8,Cc1noc(/C=C/c2ccco2)c1S(=O)(=O)N1CCC(C(=O)N2CCc3ccccc3C2)CC1,"inconclusive: 39.8 µM [inhibitor, single point]"
9,COCCNC(=O)c1ccc2c(c1)N(Cc1c(F)cccc1Cl)C(=O)c1ccccc1S2,inactive
10,CCCCOc1ccc(C(=O)Nc2nc3c(s2)CC(C)CC3)cc1 (configuration not stated),"inconclusive: 2.24 µM [inhibitor, full curve]"
11,COc1ccccc1NC(=O)NS(=O)(=O)c1ccc(C)cc1,inactive
12,Cc1ccc(NC(=O)c2ccc(-n3cccn3)c([N+](=O)[O-])c2)cc1C,"inconclusive: 4.47 µM [inhibitor, full curve]"
13,Cc1c(CC(C)(C)C(=O)O)n(Cc2ccc(Cl)cc2)c2ccc(F)cc12,"inconclusive: 39.8 µM [inhibitor, single point]"
14,Cc1cnc(NC(=O)CSc2nnc(C)s2)s1,"inconclusive: 0.158 µM [inhibitor, full curve, poor fit]"
15,COC(=O)C1=C(C)NC=C([N+](=O)[O-])C1c1ccc(OC)cc1 (configuration not stated),"inconclusive: 28.2 µM [inhibitor, single point]"
16,CC(=O)/C(=N/Nc1ccccc1)Sc1nnc(CCc2ccccc2)n1-c1ccccc1,inactive
17,CCCOc1ccc(C(C)=O)cc1CSc1nc(O)cc(=O)[nH]1,"inconclusive: 14.1 µM [inhibitor, partial curve]"
18,CCN(CC)C(=O)c1sc2nc(-c3cccs3)cc(-c3ccc(Cl)cc3)c2c1N,"inconclusive: 14.1 µM [inhibitor, partial curve]"
19,O=c1c2ccccc2nc(N2CCN(c3cccc(Cl)c3)CC2)n1-c1ccccc1,inactive
20,CCOC(=O)c1ccc(NC(=O)CSc2nnc(C3CC3)n2C)cc1,"inconclusive: 0.112 µM [activator, full curve, poor fit]"
21,Cn1nccc1-c1cc(Cl)cc(Cl)c1O,"inconclusive: 15.8 µM [inhibitor, partial curve]"

row,Compound,Potency
1,CCn1ncc(Br)c1C(=O)Nc1ccccc1OC,inactive
2,O=C(c1cccc2ccccc12)N1CCN(c2ccc([N+](=O)[O-])c(N3CCOCC3)c2)CC1,"inconclusive: 31.6 µM [inhibitor, single point]"
3,Oc1cc(NCc2cccnc2)ccc1-c1nc2ccccc2o1,"inconclusive: 3.55 µM [inhibitor, partial curve]"
4,O=C1c2cccc3cccc(c23)C(=O)N1CCc1ccccc1,"inconclusive: 22.4 µM [inhibitor, partial curve]"
5,NC(=O)C1(N2CCCCC2)CCN(C(=S)Nc2ccc(S(N)(=O)=O)cc2)CC1,inactive
6,COc1ccc(O)c(C(=O)c2cnn(C(=O)c3cc(C)oc3C)c2)c1,"inconclusive: 11.2 µM [inhibitor, partial curve]"
7,CCN(CC)c1ccc(C=Nc2cc(C)ccc2C)c(O)c1,"inconclusive: 0.794 µM [inhibitor, full curve, poor fit]"
8,CCOc1ccc(NC(=O)Cn2cc(C(=O)c3ccccc3)c(=O)c3cc4c(cc32)OCCO4)cc1,"inconclusive: 39.8 µM [activator, single point]"
9,Clc1ccc(-c2noc(-c3cccnc3N3CCN(c4ccccc4)CC3)n2)cc1,inactive
10,COC(=O)c1ccc(NC(=O)CC2C(=O)N(c3ccc(C)cc3)C(=O)N2Cc2ccc(OC)cc2)cc1 (configuration not stated),"inconclusive: 39.8 µM [inhibitor, single point]"
11,O=S(=O)(Nc1ccc(-c2nc3cccnc3s2)cc1)c1ccc(Cl)s1,"inconclusive: 20 µM [inhibitor, partial curve]"
12,COc1ccc(/C=N/NC(=O)c2cc(C)n(-c3ccccc3)c2C)cc1OC,"inconclusive: 14.1 µM [inhibitor, partial curve]"
13,Nc1ccc2oc(-c3cccc(Br)c3)nc2c1,"inconclusive: 15.8 µM [inhibitor, partial curve]"
14,CCc1cccc(NC(=O)CS(=O)Cc2nc(-c3ccc(C)cc3)oc2C)c1 (configuration not stated),"inconclusive: 22.4 µM [inhibitor, partial curve, poor fit]"
15,CN(C)c1nc(=NCc2ccco2)ss1,active: 8.91 µM
16,Cc1ccc(N=C2C(=S)N(c3ccc(C)cc3)C(=N)N2/N=C/c2ccc(Cl)cc2)cc1,"inconclusive: 15.8 µM [inhibitor, partial curve]"
17,Cc1ccc(-c2[nH]c3ccccc3c2SCCNC(=O)c2cc3ccccc3oc2=O)cc1,"inconclusive: 17.8 µM [inhibitor, partial curve]"
18,O=S(c1ccc2ccccc2c1)c1cnns1 (configuration not stated),"inconclusive: 22.4 µM [inhibitor, single point]"
19,C[C@@H](C(=O)O)[C@H]1C[C@]1(C)[C@H](NC(=O)OCc1ccccc1)c1ccccc1,inactive
20,Cc1ccc2[nH]c3c(c2c1)CC/C(=C/c1ccccc1)C3=O,"inconclusive: 3.16 µM [inhibitor, full curve]"
21,COc1ccc(/C=C2\SC(=S)N(NC(=O)c3csc4c3CCCC4)C2=O)cc1,"inconclusive: 1.78 µM [inhibitor, full curve]"
